In PMC4336329 (PLoS ONE, 2015):
About 2,200 (0.71%) of roughly 310,000 compounds showed an effect of 50% or more. Effects have a minus sign here. Some of the results follow.

What follows are molecules tested against human ether-à-go-go-related gene (hERG) potassium channel (human, UniProt Q12809) (assay: primary screen, population patch clamp on CHO cells stably expressing hERG).
human ether-à-go-go-related gene (hERG) potassium channel, sequence (Q12809 whole entry, looked up): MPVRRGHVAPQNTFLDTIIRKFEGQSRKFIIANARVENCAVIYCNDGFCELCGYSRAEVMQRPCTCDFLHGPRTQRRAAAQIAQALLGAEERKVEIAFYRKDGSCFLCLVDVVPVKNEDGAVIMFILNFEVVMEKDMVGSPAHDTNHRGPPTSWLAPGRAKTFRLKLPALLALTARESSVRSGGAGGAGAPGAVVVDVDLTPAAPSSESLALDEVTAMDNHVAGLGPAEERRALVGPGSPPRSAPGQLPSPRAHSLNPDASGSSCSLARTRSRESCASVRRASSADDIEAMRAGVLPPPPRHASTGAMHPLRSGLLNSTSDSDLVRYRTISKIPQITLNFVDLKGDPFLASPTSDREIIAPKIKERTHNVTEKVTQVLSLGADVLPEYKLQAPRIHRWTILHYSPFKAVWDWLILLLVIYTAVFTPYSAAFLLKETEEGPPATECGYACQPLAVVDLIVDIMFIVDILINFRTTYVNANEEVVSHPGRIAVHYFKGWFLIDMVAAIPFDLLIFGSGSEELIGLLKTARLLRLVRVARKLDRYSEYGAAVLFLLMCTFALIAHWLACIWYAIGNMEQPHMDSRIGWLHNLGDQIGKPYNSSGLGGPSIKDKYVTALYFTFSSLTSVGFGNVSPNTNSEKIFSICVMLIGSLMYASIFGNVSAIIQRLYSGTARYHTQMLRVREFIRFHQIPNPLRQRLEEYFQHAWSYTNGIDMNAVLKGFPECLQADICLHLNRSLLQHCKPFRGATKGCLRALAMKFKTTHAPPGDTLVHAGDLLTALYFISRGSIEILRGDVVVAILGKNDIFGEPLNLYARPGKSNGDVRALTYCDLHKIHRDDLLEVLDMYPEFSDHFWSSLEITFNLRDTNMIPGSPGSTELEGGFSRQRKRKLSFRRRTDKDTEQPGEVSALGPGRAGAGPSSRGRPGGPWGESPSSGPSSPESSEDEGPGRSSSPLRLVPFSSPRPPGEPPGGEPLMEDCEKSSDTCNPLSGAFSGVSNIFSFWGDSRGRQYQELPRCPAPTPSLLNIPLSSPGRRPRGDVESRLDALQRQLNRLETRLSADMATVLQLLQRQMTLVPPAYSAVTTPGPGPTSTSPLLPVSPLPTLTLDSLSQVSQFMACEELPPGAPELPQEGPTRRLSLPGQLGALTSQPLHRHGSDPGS

| SMILES | hERG current change (%, negative = inhibition) at 1uM [%] |
| --- | --- |
| COc1ccc(CN2C(=O)NC(=O)/C(=C/c3cc(OC)c(OC)c(OC)c3)C2=O)cc1 | 11.5 |
| CCOC(=O)/C(C#N)=C1/C=CN(C)C(C)=N1 | 11.9 |
| CCCOc1ccc(N)cc1N.Cl | 8.72 |
| C/C(=N\NC(=O)C(O)(c1ccccc1)c1ccccc1)c1ccc(C)o1 | 13.2 |
| COc1ccc2c(OC)cc(-c3ccccc3)nc2c1 | 4.57 |
| COc1nc(Nc2cccc(C(F)(F)F)c2)nc(OC)n1 | 8.79 |
| CC(=O)Nc1ccc(/C=N/N2C(C)CCCC2C)cc1 (stereo not shown) | 14.2 |
| COc1ccc([N+](=O)[O-])cc1N(CC(=O)N1CCCC1)S(C)(=O)=O | 10.2 |
| Cc1nc2ccc([N+](=O)[O-])cc2c(=O)n1Cc1ccc(F)cc1 | -9.51 |
| CSc1ccc(C(=O)C2CCCN(C(=O)c3cc4cc(F)ccc4[nH]3)C2)cc1 (stereo not shown) | 13 |
| O=C(O)CCC(=O)N1CCc2cc(S(=O)(=O)N3CC=C(c4ccccc4)CC3)ccc21 | 13.4 |
| CCc1ccc(NC(=O)CN2C(=O)CSC2=O)cc1 | 8.41 |
| COc1ccc(N2C(=O)CC(SCc3ccc(Cl)cc3)C2=O)cc1 (stereo not shown) | 8.87 |
| CCOC(=O)C1CCCN(C2CC(=O)N(c3ccc(C)cc3)C2=O)C1 (stereo not shown) | 10.7 |
| Cc1c(C)n(C(=O)CN2CCN(c3ccccc3)CC2)c2ccccc12 | 1.3 |
| COc1ccc(C(C)C)cc1S(=O)(=O)NCc1ccccn1 | 11.4 |
| CCOC(=O)c1sc(Nc2ccc(C)cc2C)nc1C | 14.3 |
| Cc1ccc(NC(=O)c2ccco2)cc1NC(=O)CSc1nnc(-c2cccs2)n1C | -21.9 |
| Nn1c(SCc2cccc(Cl)c2)nnc1-c1ccncc1 | 6.74 |
| Cc1cccc(NC(=O)COC(=O)Cc2c[nH]c3ccccc23)c1C | 16.7 |

| SMILES | hERG current change (%, negative = inhibition) at 1uM [%] |
| --- | --- |
| COc1ccc(NC(=O)C(c2cc3c(cc2[N+](=O)[O-])OCO3)N(C)Cc2ccccc2)cc1 (stereo not shown) | 10.8 |
| COc1cc2[nH]c(=S)n(CCN3CCCCC3C)c(=O)c2cc1OC (stereo not shown) | 1.74 |
| Cn1c(O)c(C(c2ccncc2)c2c(O)n(C)c(=S)n(C)c2=O)c(=O)n(C)c1=S | 11.3 |
| Cc1[nH]c(=O)cc2ccccc12 | 11.3 |
| O=C(COC(=O)c1ccco1)Nc1cccc(Br)c1 | 11.4 |
| Cc1ccc(-c2csc(NC(=O)CSc3nc(C)cs3)n2)cc1 | -0.666 |
| Cc1nc(C)n(CC(=O)N2CCCC(C(=O)c3ccc(Cl)cc3C)C2)n1 (stereo not shown) | -2.69 |
| Cc1nnc(SCC(=O)N(Cc2ccccc2)C(C)C)n1-c1ccccc1 | 12.3 |
| CC(C(=O)Nc1cccnc1)N1C(=O)c2ccccc2C1=O (stereo not shown) | 11.7 |
| CCOC(=O)N1CCN(C(=O)CSc2ccc(-c3ccccc3OC)nn2)CC1 | 2.58 |
| COc1cc(C(=S)N2CCOCC2)cc(Br)c1OS(=O)(=O)c1ccccc1 | 19.5 |
| COc1ccccc1CN1CCN(Cc2nc(-c3ccc(C)cc3)oc2C)CC1 | 1.01 |
| CCCn1c(SCC(=O)NC2CCCc3ccccc32)n[nH]c1=O (stereo not shown) | 18.2 |
| Fc1ccc(CN2CCN(c3ncnc4scc(-c5ccc(F)cc5)c34)CC2)cc1 | 13.8 |
| Cn1ccnc1Sc1ccccc1[N+](=O)[O-] | 12.1 |
| CC(C)C(=O)NC(=S)Nc1ccccc1N1CCN(C(=O)c2ccccc2)CC1 | 6.8 |
| CC(C)c1nnc(NC(=O)CCCCCN2C(=O)C3C4C=CC(C4)C3C2=O)s1 (stereo not shown) | -3.36 |
| CC(=O)Nc1ccc(S(=O)(=O)N(C)CC(=O)OCC(=O)N2CCCC2=O)cc1 | 6.45 |
| O=C(CN1C(=O)COc2ccc(S(=O)(=O)N3CCCCC3)cc21)NCc1ccc(Cl)cc1 | 16.4 |
| Cc1ccc(NC(=O)Nc2ccc3c(c2)nc(C)n3C)cc1 | 7.11 |

| SMILES | hERG current change (%, negative = inhibition) at 1uM [%] |
| --- | --- |
| O=C(NCc1ccccc1C(F)(F)F)C1CC(c2ccc(C(F)(F)F)cc2)=NO1 (stereo not shown) | 8.37 |
| Cc1nc2c(c3c1[nH]c1ccccc13)C(=O)CC(C)(C)C2 | 17.6 |
| COc1ccc(CCNC(=O)CSc2ccccn2)cc1 | 5.88 |
| CCOC(=O)c1sc(NC(=O)c2ccncc2)nc1C | 4.1 |
| COc1ccc(NC(=O)C(CC(C)C)NC(=O)C2CCC(C)CC2)cc1 (stereo not shown) | 8.82 |
| COc1ccc(S(=O)(=O)Nc2ccccc2C(=O)N2CCOCC2)cc1Br | 7.83 |
| CCOc1ccc(C2CC(c3cccc(C)c3)n3ncnc3N2)cc1 (stereo not shown) | -13.6 |
| CC(C)N(C(=O)CSc1nc(Cc2ccccc2)nc2ccccc12)C(C)C | 10.5 |
| CCOC(=O)C1(Cc2ccccc2C)CCCN(C(=O)CN2CCCCC2=O)C1 (stereo not shown) | 16.8 |
| CCCCN(C(=O)c1cc(-c2ccco2)nc2ccccc12)c1c(N)n(CCCC)c(=O)[nH]c1=O | 7.94 |
| Cc1ccc(C)c(NC(=O)NCCN2CCCCC2)c1 | 4.5 |
| CCOC(=O)C(NC(C)=O)(Nc1cccc(F)c1)C(F)(F)F (stereo not shown) | 9.09 |
| Cc1ccc(-c2csc(NC(=O)c3ccccc3Cl)c2C(=O)O)cc1 | 19.3 |
| CC(=O)NC1=NN(C(C)=O)C(C)(CS(=O)(=O)c2ccc(C)c(C)c2)S1 (stereo not shown) | 14.9 |
| O=c1c2c(-c3ccccc3)csc2nc2n1CCC2 | 15.5 |
| COc1ccc(Oc2nc(-c3ccccc3)ncc2C(=O)O)cc1 | 12.7 |
| CCCN(CCC)S(=O)(=O)c1ccc(C(=O)N2CC3CCC(CC3)C2)cc1 | 14.2 |
| O=C(Nc1ccccc1NC(=O)c1c(F)c(F)c(F)c(F)c1F)c1c(F)c(F)c(F)c(F)c1F | 5.94 |
